Test results reported in the supplement of paper PMC4604168 (melanoma cell lines).
The other results are listed elsewhere or left out. Many values rest on one well or one pass, so single values are uncertain.

Legend:
Experiment in all cases: cell count relative to DMSO control; melanoma cells; higher = more viable cells
Conditions in all cases: library dose: low library concentration; 72 h
[1] = tested on: MZ2-MEL
[2] = tested on: MeWo
[3] = tested on: RPMI7951
[4] = tested on: RVH-421
[5] = tested on: SkMel28
[6] = tested on: SkMel2
[7] = tested on: SkMel30
[8] = tested on: SkMel5
[9] = tested on: UACC257
[10] = tested on: UACC62
[11] = tested on: WM115
[12] = tested on: WM1716
[13] = tested on: WM1745
[14] = tested on: WM3526
[15] = tested on: WM3619
[16] = tested on: WM451Lu
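Also: cell number obtained by counting DAPI-stained nuclei in high-throughput microscope images with image analysis software, screen run in 1,536-well plates.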

| SMILES | cell count [1] [%] | cell count [2] [%] | cell count [3] [%] | cell count [4] [%] | cell count [5] [%] | cell count [6] [%] | cell count [7] [%] | cell count [8] [%] | cell count [9] [%] | cell count [10] [%] | cell count [11] [%] | cell count [12] [%] | cell count [13] [%] | cell count [14] [%] | cell count [15] [%] | cell count [16] [%] |
| --- | --- | --- | --- | --- | --- | --- | --- | --- | --- | --- | --- | --- | --- | --- | --- | --- |
| Cc1ccc(Nc2nccc(N(C)c3ccc4c(C)n(C)nc4c3)n2)cc1S(N)(=O)=O [Pazopanib] + CN(NC(=O)CC(=O)NN(C)C(=S)c1ccccc1)C(=S)c1ccccc1 [STA4783] (first compound 0.4 µM, partner dose 0.006 µM) | 77.2 | 94.3 | 90.7 | 90.3 | 94 | 101 | 91.5 | 97.2 | 82.7 | 69.9 | 88.1 | 45 | 40.5 | 96.7 | 65.8 | 88.9 |
| Cc1ccc(Nc2nccc(N(C)c3ccc4c(C)n(C)nc4c3)n2)cc1S(N)(=O)=O [Pazopanib] + Cc1cc(N2CCOCC2)cc2[nH]c(-c3c(NC[C@@H](O)c4cccc(Cl)c4)cc[nH]c3=O)nc12 [BMS536924] (first compound 0.4 µM, partner dose 0.2 µM) | 89.5 | 93.9 | 101 | 103 | 98.7 | 93.6 | 62.2 | 89.4 | 105 | 93.3 | 103 | 99 | 78.8 | 80.8 | 92.7 | 114 |
| CC1(C)CCC(c2ccc(Cl)cc2)=C(CN2CCN(c3ccc(C(=O)NS(=O)(=O)c4ccc(N[C@H](CCN5CCOCC5)CSc5ccccc5)c(S(=O)(=O)C(F)(F)F)c4)cc3)CC2)C1 + O=C(CCCCCCC(=O)Nc1ccccc1)NO [vorinostat] (first compound 0.4 µM, partner dose 0.08 µM) | 106 | 75.4 | 77.2 | 65.6 | 79.7 | 92 | 77.6 | 53.5 | 67.7 | 82.9 | 102 | 85.6 | 11.9 | 92.2 | 120 | 74.8 |
| O=C(/C=C/c1cccnc1)NCCCCC1CCN(C(=O)c2ccccc2)CC1 + C[C@]1(c2nc3c(C(N)=O)cccc3[nH]2)CCCN1 [Veliparib] (first compound 0.01 µM, partner dose 1.4 µM) | 57.2 | 115 | 107 | 47.4 | 90.8 | 53.7 | 113 | – | – | 78.9 | 93.7 | 88.5 | 99.9 | 129 | 95.5 | 108 |
| O=C(/C=C/c1cccnc1)NCCCCC1CCN(C(=O)c2ccccc2)CC1 + Nc1cccc2c1CN(C1CCC(=O)NC1=O)C2=O [lenalidomide] (first compound 0.01 µM, partner dose 1 µM) | 43.7 | 115 | 99.4 | 33.5 | 103 | 33.5 | 102 | – | – | 90 | 88.7 | 96 | 88.8 | 96 | 92 | 92.6 |
| O=C(/C=C/c1cccnc1)NCCCCC1CCN(C(=O)c2ccccc2)CC1 + C=CCn1c(=O)c2cnc(Nc3ccc(N4CCN(C)CC4)cc3)nc2n1-c1cccc(C(C)(C)O)n1 [MK1775] (first compound 0.01 µM, partner dose 0.02 µM) | 37.5 | 92.5 | 97.5 | 62.6 | 79.5 | 43.9 | 103 | 82.3 | 75.1 | 86.3 | 77.4 | 79.3 | 81.6 | 117 | 69 | 99.8 |
| Cc1ccc(Nc2nccc(N(C)c3ccc4c(C)n(C)nc4c3)n2)cc1S(N)(=O)=O [Pazopanib] + Cn1cncc1[C@@](N)(c1ccc(Cl)cc1)c1ccc2c(c1)c(-c1cccc(Cl)c1)cc(=O)n2C [tipifarnib] (first compound 0.4 µM, partner dose 0.01 µM) | 85.4 | 97.2 | 96.2 | 87.5 | 80.2 | 76.1 | 86.7 | 88 | 67.4 | 59.8 | 97.3 | 83.5 | 91 | 93.5 | 97.5 | 104 |
| O=C(/C=C/c1cccnc1)NCCCCC1CCN(C(=O)c2ccccc2)CC1 + O=C(O)c1ccc(-c2c[nH]c3ncc(-c4ccccc4)cc23)cc1C1CCCC1 [GSK650394] (first compound 0.01 µM, partner dose 0.16 µM) | 38.6 | 112 | 105 | 44 | 76 | 39.8 | 97 | 93.8 | 63.3 | 87.3 | 79.4 | 95.2 | 88.8 | 88 | 82.4 | 92.8 |
| O=C(/C=C/c1cccnc1)NCCCCC1CCN(C(=O)c2ccccc2)CC1 + O=C(O)[C@@H]1[O][Sb](=[O])([O][Sb]2(=[O])[O][C@H]([C@H](O)CO)[C@H](O)[C@H](C(=O)O)[O]2)[O][C@H]([C@H](O)CO)[C@@H]1O [stibogluconate] (first compound 0.01 µM, partner dose 2 µM) | 48.4 | 103 | 116 | 65.1 | 97.6 | 39.2 | 122 | – | – | 101 | 106 | 108 | 116 | 110 | 107 | 106 |
| O=C(/C=C/c1cccnc1)NCCCCC1CCN(C(=O)c2ccccc2)CC1 + Cc1cc([N+](=O)[O-])ccc1NS(=O)(=O)c1cc(Cl)ccc1Cl [FH535] (first compound 0.01 µM, partner dose 1 µM) | 44.4 | 99.6 | 113 | 66 | 102 | 47.8 | 92.7 | 108 | 98.4 | 95.2 | 91.7 | 78.4 | 96.8 | 104 | 106 | 93.3 |
| O=C(/C=C/c1cccnc1)NCCCCC1CCN(C(=O)c2ccccc2)CC1 + CCN(CC)CCNC(=O)c1c(C)[nH]c(/C=C2\C(=O)Nc3ccc(F)cc32)c1C [sunitinib] (first compound 0.01 µM, partner dose 0.4 µM) | 45.9 | 92.2 | 115 | 48.1 | 71.5 | 32.3 | 83.4 | – | – | 83.1 | 100 | 114 | 94.3 | 76.2 | 76.6 | 103 |
| Cc1ccc(Nc2nccc(N(C)c3ccc4c(C)n(C)nc4c3)n2)cc1S(N)(=O)=O [Pazopanib] + COc1ccc2c(c1)CCC1C2CCC2(C)C(NCCCCCCN3C(=O)C=CC3=O)CCC12 [U73122] (first compound 0.4 µM, partner dose 0.4 µM) | 73.4 | 108 | 76.5 | 102 | 93.6 | 113 | 85.1 | 87 | 90.7 | 90.3 | 91.8 | 71.8 | 77.7 | 89.9 | 79.4 | 93.2 |
| O=C(/C=C/c1cccnc1)NCCCCC1CCN(C(=O)c2ccccc2)CC1 + O=c1cc(-c2cccc3c2Sc2ccccc2S3)oc(N2CCOCC2)c1 [KU55933] (first compound 0.01 µM, partner dose 1 µM) | 40.8 | 106 | 89.7 | 70.8 | 95.7 | 52.2 | 77.1 | 90.9 | 108 | 95.7 | 88.7 | 92.8 | 84 | 89.9 | 81.2 | 117 |
| CC1(C)CCC(c2ccc(Cl)cc2)=C(CN2CCN(c3ccc(C(=O)NS(=O)(=O)c4ccc(N[C@H](CCN5CCOCC5)CSc5ccccc5)c(S(=O)(=O)C(F)(F)F)c4)cc3)CC2)C1 + COc1ccc(C2=N[C@@H](c3ccc(Cl)cc3)[C@@H](c3ccc(Cl)cc3)N2C(=O)N2CCNC(=O)C2)c(OC(C)C)c1 [Nutlin-3] (first compound 0.4 µM, partner dose 0.1 µM) | 101 | 71.2 | 59.6 | 73.6 | 83.9 | 94 | 40.4 | – | – | 95.6 | 78 | 71.7 | 10.9 | 96 | 86.6 | 65.3 |
| Cc1ccc(Nc2nccc(N(C)c3ccc4c(C)n(C)nc4c3)n2)cc1S(N)(=O)=O [Pazopanib] + c1cc(-c2cnn3cc(-c4ccc(OCCN5CCCCC5)cc4)cnc23)ccn1 [Dorsomorphin] (first compound 0.4 µM, partner dose 0.4 µM) | 83.2 | 105 | 84.5 | 88.2 | 86.1 | 120 | 72.3 | 70.1 | 62.4 | 81.8 | 103 | 98.5 | 85.7 | 70.3 | 78.6 | 94.6 |
| CC1(C)CCC(c2ccc(Cl)cc2)=C(CN2CCN(c3ccc(C(=O)NS(=O)(=O)c4ccc(N[C@H](CCN5CCOCC5)CSc5ccccc5)c(S(=O)(=O)C(F)(F)F)c4)cc3)CC2)C1 + O=C1NC(=O)/C(=C/c2ccc(-c3ccc(F)cc3O)o2)S1 [AS252424] (first compound 0.4 µM, partner dose 1 µM) | 93.4 | 73.7 | 53.9 | 73.9 | 83.5 | 91.2 | 65.9 | 75.6 | 92.8 | 94.2 | 78.1 | 63.1 | 8.42 | 85 | 65.1 | 86.5 |
| O=C(/C=C/c1cccnc1)NCCCCC1CCN(C(=O)c2ccccc2)CC1 + Cn1nnc2c(C(N)=O)ncn2c1=O [temozolomide] (first compound 0.01 µM, partner dose 2 µM) | 50.2 | 106 | 97.5 | 53.9 | 67.9 | 21.6 | 92.7 | – | – | 89.8 | 103 | 94.9 | 103 | 110 | 88.5 | 109 |
